Experimental data: PubChem BioAssay AID1347120 (National Center for Advancing Translational Sciences (NCATS), 2019)
Screen size: about 390,000 compounds; about 930 (0.24%) were called active. This list was built around the results that the source calls inconclusive (neither active nor inactive); the mix of calls is not that of the screen. Calls come from the whole dose curve; as a rule, active = well fitted activation curve with a large enough effect; inconclusive = small, poorly fitted or top-dose-only effect; inactive = no such curve, though single readings can be large or run the other way. Potencies beside an inconclusive call are fits to weak or partial responses and may not hold up. Peptide text beside a SMILES is read from it. * marks the point of attachment. Boc = CC(C)(C)OC(=O)*; OBn = c1ccc(CO*)cc1

Assay: qHTS for Suppressors of FUS Proteinopathy: Primary screen using FUS-linked yeast assay; note: nearly all actives have a fitted effect of over 55% in size;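 for growth rescue (activation): plate controls were DMSO vehicle for no effect and reference control for full effect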
Settings: S. cerevisiae FUS-expressing, OD600, 24 h; Potency: growth rescue; growth rescue (activation): at 76.6 µM (top of the series)
Description: Several widespread neurodegenerative diseases, including Alzheimer disease, Huntington disease, Frontotemporal Lobar Degeneration (FTLD) and Amyotrophic Lateral Sclerosis (ALS), share a common pathological feature, namely accumulation of specific protein aggregates in diseased tissue. These diseases which is associated with protein misfolding (proteinopathies) have become increasingly problematic as the population ages and life expectancies are extended. Most proteinopathies are currently incurable, a situation confounded by the fact that the basis of neurodegeneration is generally poorly understood. There exists urgent and significant need to find therapeutics that can inhibit the toxicity associated with protein aggregation. A novel approach to understand the underlying mechanisms of neurodegenerative diseases has recently emerged in which the disease conditions are modeled in the yeast (Saccharomyces cerevisiae), a tractable eukaryotic organism with conserved protein quality control mechanisms. Yeast offers quick and reliable genetic manipulations and can be easily tailored to high-throughput screening (HTS).
For this project, a yeast model of the FUS proteinopathies (a spectrum of neurodegenerative diseases that include ALS and a subtype of FTLD) was generated and employed. The cytoplasmic accumulation of the DNA/RNA-binding protein FUS (also known as TLS) is causative to both familial and sporadic forms of ALS and FTLD. This yeast model recapitulates neuronal pathology by showing severe cytotoxicity associated with cytoplasmic accumulation of FUS aggregates and a specific interaction between FUS and TDP-43, another ALS-associated protein. […] Specifically, the cellular accumulation of misfolded FUS that disrupts RNA homeostasis in both yeast and higher eukaryotes. This model was validated to be suitable for quantitative HTS (qHTS) use for finding genetic or chemical factors that restore growth. […] Identified compounds that inhibits FUS-yeast toxicity is flagged, re-acquired, and validated for further investigation and optimization.
NIH Chemical Genomics Center [NCGC]
NIH Molecular Libraries Probe Production Centers Network [MLPCN]
Assay Submitter (PI): Frank Shewmaker PhD, Uniformed Services University of the Health Sciences
Compound CP55940 was used as the positive control. Column 1 was treated with CP55940 titration from 92uM (final concentration, 1:2 dilution), while Column 2 was treated with top dose 92uM. Columns 3 and 4 were treated with DMSO only as negative control to assess background and noise signal.
Four hundred fifty microliter of cultured yeast (in 20mL rich medium) provided by Dr. Shewmaker lab was incubated at 30C at 99% humidity for 3hr. The culture was then spun down at 4000rpm for 5min and the cell pellet was resuspended in 2mL of Sdmin Media + ALU(330) + 2.5% Raffinose. One hundred microliter of the suspension was added to 900uL of water and OD of the solution was obtained. Twenty mL of responding medium (provided by Shewmaker lab) + 2.5% raffinose was added to ensure cell density of 0.1; the solution was incubated overnight. Working cell solution (FUS-yeast in Sdmi + Sdmi + 1X ALU + 2% galactose media) was prepared (final OD at 0.005) and 3uL was dispensed in a 1536-well Aurora high based clear bottom assay plates. Controls and library compounds (at various final concentrations from 40uM to 0.32uM) were added using a 1536-well pin array using the Kalypsys pin-tool. The plates were then incubated for 24hrs in a cell-culture incubator (30C; 99% humidity). Absorbance at 600nm was then read using the PerkinElmer ViewLux plate reader.
Potency is the fitted concentration of half-maximal effect; tags give direction and shape of the fitted curve.

| Compound | Potency | growth rescue (activation) |
| --- | --- | --- |
| CN(C(=O)c1ccc(NC(=O)Cc2ccc(NC(=O)C3CCN(C(=O)C4CCCCC4)CC3)cc2)cc1)C1CCCC1 | inconclusive: 50.1 µM [activator, single point] | – |
| O=C(Nc1nc(-c2ccco2)cs1)c1ccccc1 | – | inactive: 20.1% |
| COCCN1C(=O)C(=O)/C(=C(/O)c2ccc(S(=O)(=O)N3CCOCC3)cc2)C1c1cccc(OC)c1 (stereo unspecified) | active: 5.01 µM | – |
| NC(=O)C1CCN(C2CC(=O)N(c3cccc(F)c3)C2=O)CC1 (stereo unspecified) | – | inactive: -23% |
| COCCn1c(C)cc(O)c(C(c2ccccc2)N2CCN(c3ccccc3F)CC2)c1=O (stereo unspecified) | – | inactive: 0.0283% |
| CCC1(C)Cc2c(sc3nnn(CC(=O)Nc4cccc5ccccc45)c(=O)c23)CO1 (stereo unspecified) | inconclusive: 7.08 µM [activator, full curve, poor fit] | – |
| CC(=O)NC1=NC(=O)/C(=C/c2cc(C)n(-c3cccc(C(=O)O)c3)c2C)S1 | inconclusive: 31.6 µM [activator, partial curve, poor fit] | – |
| COc1ccc(OC)c(C2C(C(=O)c3ccc(C)o3)=C(O)C(=O)N2c2cc(C)on2)c1 (stereo unspecified) | active: 31.6 µM | – |
| COc1ccc(NC(=O)CCc2c(C)nn(-c3ccc(N4CCCC4)nn3)c2C)cc1Cl | – | inactive: 34.6% |
| Cn1c2ccccc2c(=O)c2c(=O)n(Cc3ccco3)c(COc3ccccc3)nc21 | inconclusive: 14.1 µM [activator, partial curve] | – |
| O=C(NC1CCCCC1)c1ccc(CSc2nc3ccncc3n2Cc2cccc(F)c2)cc1 | – | inactive: 19.4% |
| CCOc1ccc(N(CC(=O)Nc2ccccc2OCC)S(=O)(=O)c2c(C)noc2C)cc1 | inconclusive: 12.6 µM [activator, partial curve] | – |
| COc1cc(/C=C/C(=O)Nc2cccc(S(=O)(=O)N3CCOCC3)c2)ccc1OCC#N | inconclusive: 50.1 µM [activator, single point] | – |
| CC(C)CC(NC(=O)C(NC(=O)OC(C)(C)C)C(C)C)C(=O)NC(CCC(=O)OCc1ccccc1)C(N)=O (stereo not drawn) (Boc-Val-Leu-Glu(OBn)-NH2; configuration not given here) | inconclusive: 28.2 µM [activator, single point] | – |
| CCOC(=O)N1CCc2c(sc(NCc3cc(OC)ccc3OC)c2C(=O)Nc2cc(OC)ccc2OC)C1 | inconclusive: 25.1 µM [activator, single point] | – |
| CCN1C(=O)[C@@H]2[C@@H](c3ccc(-c4ccc(C(C)=O)cc4)cc3)N3CCCC[C@@]3(C(=O)OC)[C@@H]2C1=O | inconclusive: 35.5 µM [activator, partial curve, poor fit] | – |

| Compound | Potency | growth rescue (activation) |
| --- | --- | --- |
| COC(=O)[C@@]12C[C@@H](CC(=O)NCC34CC5CC(CC(C5)C3)C4)C(=O)N(Cc3ccccc3)C1=CCC(C)(C)C2 | inconclusive: 28.2 µM [activator, single point] | – |
| O=C(CSc1nnc2scc(-c3ccc(Cl)cc3)n12)Nc1ccc(F)cc1 | – | inactive: -0.046% |
| CCOCCCNC(=O)C(c1ccc(C)cc1)N(Cc1ccc2c(c1)OCO2)C(=O)c1ccccc1O (stereo unspecified) | – | inactive: 30.6% |
| O=C(NC1CCCCC1)C(C1CC1)n1c(=O)c(-c2cc3ccccc3[nH]2)nc2ccccc21 (stereo unspecified) | inconclusive: 31.6 µM [activator, single point] | – |
| NC(=O)CC(NC(=O)Cc1ccc(Br)cc1)c1ccc(NCCOc2ccccc2)c([N+](=O)[O-])c1 (stereo unspecified) | inconclusive: 35.5 µM [activator, single point] | – |
| Cc1nn(-c2ccc(F)cc2)c(N)c1C1(O)C(=O)Nc2ccccc21 (stereo unspecified) | – | inactive: -27.7% |
| CSc1ncccc1C(=O)OCC(=O)Nc1cc(C(F)(F)F)ccc1N1CCOCC1 | inconclusive: 31.6 µM [activator, single point] | – |
| CCSc1nc(-c2cccc(Cl)c2)nc2c1Cc1c(CO)cnc(C)c1O2 | – | inactive: 3.72% |
| O=C(c1ccc2c(c1)OCO2)N1CCCC1 | active: 10 µM | – |
| CCOC(=O)CN(C(=O)CSc1nnc(-c2cccc(OC)c2)o1)c1ccc(F)cc1 | inconclusive: 3.98 µM [activator, partial curve, poor fit] | – |
| CSc1ccc(CNC(=O)C2Cc3cc(S(=O)(=O)N4CCCCC4)ccc3N2C(C)=O)cc1 (stereo unspecified) | inconclusive: 50.1 µM [activator, single point] | – |
| CC1(C(=O)Nc2ccc3c(c2)OCCO3)CCN1C(=O)C1(c2ccc(Cl)cc2)CC1 (stereo unspecified) | – | inactive: 39.1% |
| Cc1c(Cl)ccc2sc(N3CCN(C(=O)CCS(=O)(=O)c4ccc(F)cc4)CC3)nc12 | inconclusive: 22.4 µM [activator, partial curve, poor fit] | – |
| Cc1ccc2c(c1)C(c1ccccc1)N(C(=O)COc1ccc(Cl)cc1Cl)CC(=O)N2 (stereo unspecified) | inconclusive: 31.6 µM [activator, single point] | – |
| OC1CCC(Nc2ccn3nc(-c4cccc(OCc5ccccc5)c4)cc3n2)CC1 (stereo unspecified) | inconclusive: 22.4 µM [activator, partial curve] | – |
